Reference: article PMC10726135
The list shows a part of the results. At the low end of the ranking the order means little. Measured with an extract: partners may take part in the binding.

Target: T1, HNF4alpha2 (COS-7 nuclear extract) (UniProt P41235)
T1 sequence: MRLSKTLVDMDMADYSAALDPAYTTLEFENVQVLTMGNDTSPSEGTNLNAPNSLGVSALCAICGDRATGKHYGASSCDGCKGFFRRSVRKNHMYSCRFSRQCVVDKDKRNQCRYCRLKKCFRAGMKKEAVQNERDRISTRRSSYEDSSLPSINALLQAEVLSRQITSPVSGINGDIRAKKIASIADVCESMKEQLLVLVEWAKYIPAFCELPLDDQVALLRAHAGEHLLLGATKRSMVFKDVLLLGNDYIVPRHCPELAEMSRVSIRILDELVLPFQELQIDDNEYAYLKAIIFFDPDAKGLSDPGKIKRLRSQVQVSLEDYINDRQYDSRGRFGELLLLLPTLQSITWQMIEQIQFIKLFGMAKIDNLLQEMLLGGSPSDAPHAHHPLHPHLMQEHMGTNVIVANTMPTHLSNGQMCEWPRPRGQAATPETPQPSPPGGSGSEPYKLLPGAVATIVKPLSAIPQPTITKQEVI
Assay: protein-binding microarray
Conditions: COS-7 nuclear extract on double-stranded Agilent 4x180k PBM; binding buffer, salt, pH and temperature not given; high values mean tight binding; double strand, one strand shown; sequences stand for … in …GCCTAGGGAGATTAGAGTATCGGTCGA

Sequence	binding signal (log2 normalized intensity)
CACTGCTGGGTTTCTTCCCTAATGGACATC	1.25
CTCCCACCCTGCAATTCCCCTGGGCCCACG	2.23
ACCCTGTGATCATATAAGGAACAAAGTCAG	0.724
CTACTTAAAAAGAAATAGCCTGAAAATGTT	-1.15
GAGAAAAAGTCAACACTTAGGGTGGATACT	-0.81
ATGGCAAGAGATAAGGGTGGCCATCCATCC	-1.04
TAGGTCTTTTGGTGAGTCTTTGCCCCTGGA	3.46
ATTCCAAGGACTGAGATAAGAGAAGGGGTC	0.653
CTACAGGTATGCCTTTGAAGAGTACAGCCT	-0.571
TGTCGTTTGCTTAGTCTTATCTGAGGTGCC	0.932
AGTGCAGTATGCGCTCTGGGAAACAGCACT	-0.984
AGGGGACTTCGCTGGAGGTGTTAAAGTGCC	-0.669
AGCCACCTGTCACTCAATGCAGCAGCATTG	-1.21
GAGGTATGCCAGGAATGCTGAGGAGGGCCT	-1.14
TGCTCATAGCTACGGGTGACCTTGAGCACT	3.2
CTCAGCAAAGTCAGGTCAGTAGCCCAGGGT	-0.856
TTACCTTGGCAGCCACTGAGGCTCTGTGCC	-1.08
CAGAGTGATCTTTGAAACATAACAGCAACA	0.913
TGATTAGAAGAAAAGAGTTGCTCAAACCAA	-0.928
GTGGTGCTGTCCAAGGTGCTAGCTCCGACT	-1.09

Sequence	binding signal (log2 normalized intensity)
TTTCATGTTGTTTAGTCATGCCGAACTTTC	1.21
TAGTATCACTGTGAAGACGTTAGGGGGCAG	0.128
TCGCCACTACAAAGGGAATCAGGTTTTCAG	-1.05
TAAAGAGACAAAAGTCCGGAATTTCCTCCT	-1.05
CACATAATGATACCAACAGGCTTAACATAA	-1.19
CAGGACCTCGGCTCGGCCCCAGTCCCCCGG	3.72
GCTATCTTATCTTTGACCTTACCAGCCCAC	2.3
CGCCTGAACTTTGATCAGCATTCAAATGAG	3.85
AGGCGTATCTTTCTCAAGGACCTAGAGCTA	-1.08
AGTTTTTCCCATTCATAAAATTACGCCACA	-0.883
GGGGTGACCAGATTAATTACCCACAGGTGT	-0.825
CCACTTGGGCTTCCTCATCTGTTTATCTTT	1.32
CGCAGGGCGGACAGCGCCGCCACCCGGTTG	-1.08
TAATCCCTGAGCCTGGACCTTGGAATGTCA	3.33
GACATGGCTGTATGTGACATGGACATTCTA	1.14
GGTGTAAGCTCTGGAGTCCAAAGGTCAGCA	8.34
GGCTCCCTGGGGTTAAAATGTTTACTGAAG	0.875
CATTGCTCAGACAGGGCAAAGGTGCCAGGT	0.812
CAGAGATCTAGGTGAGGGATGAGGACTTTG	1.72
CAGAGAGAAGCCACTGCGACCTTTGCCCTC	9.89
